# Laboratory results as given in the supplement of paper PMC4166925.
# ± gives the standard deviation of the averaged measurements. The full ranking holds about 33,000 sequences; the median of “E-score (dimensionless, -0.5 to 0.5)” is about -0.046, and the highest 2% start at about 0.36. The list shows a part of the results.
# System: T1, SpTbr T-box DNA-binding domain (GST fusion)
# T1 sequence: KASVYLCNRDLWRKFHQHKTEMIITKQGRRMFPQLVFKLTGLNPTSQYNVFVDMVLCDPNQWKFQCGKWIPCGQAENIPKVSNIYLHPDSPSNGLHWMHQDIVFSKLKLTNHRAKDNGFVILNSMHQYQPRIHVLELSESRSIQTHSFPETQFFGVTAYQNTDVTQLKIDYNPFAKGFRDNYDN
# Test: PBM E-score of 8-mer (E-score (dimensionless, -0.5 to 0.5)); Tbr is Tbrain of the sea star Patiria miniata (Pm) or the sea urchin Strongylocentrotus purpuratus (Sp); higher = stronger binding preference; most listed sequences are background and not binding sites
# Details: the construct has about 5 more residues each side
# Description: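 Universal protein-binding microarray (Agilent AMADID 016060, 60-bp probes with a 35-bp variable region) incubated with 200 nM GST-fused Strongylocentrotus purpuratus Tbr T-box DNA-binding domain (residues 362-554) in PBS pH 7.5. Scored for every ungapped 8-mer (given with its reverse complement) as E-score (range -0.5 to 0.5; >0.45 counts as bound) and Z-score of median probe intensity. Two replicate arrays (datasets 1 and 2).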
# 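Also: protein at 200 nM in PBS on universal double-stranded arrays.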
row,Sequence,PBM E-score of 8-mer
1,AACGGAAG,-0.204 ± 0.043
2,CCGTTCAA,-0.221 ± 0.035
3,GTAATCCA,0.03 ± 0.059
4,AGAATCAA,-0.137 ± 0.042
5,CCGAAACC,-0.241 ± 0.037
6,ACTCCATG,-0.0431 ± 0.038
7,CACGCTAG,0.0339 ± 0.053
8,GTGCTACA,0.161 ± 0.055
9,GGATCCCC,-0.0275 ± 0.062
10,CATCTGCA,-0.207 ± 0.04
11,CTTGGCCC,-0.1953 ± 0.0016
12,GTTGCCCA,-0.0881 ± 0.12
13,AGCTTGTG,0.178 ± 0.06
14,TTCGAAAA,-0.282 ± 0.041
15,TAGCAGAA,-0.146 ± 0.018
16,ATTTAGCA,0.138 ± 0.094
17,AGGATGAG,-0.0633 ± 0.042
18,ACGTGGAA,-0.0808 ± 0.05
19,AGGGAGAC,-0.204 ± 0.046
20,CCTCTGGC,-0.0581 ± 0.017
21,ATACTCCC,-0.227 ± 0.01
22,AAGTAGTA,-0.0516 ± 0.042
23,CGCGAATC,0.342 ± 0.018
24,ACCAAGAA,-0.134 ± 0.025
25,ATGGGGCC,-0.0701 ± 0.0067

row,Sequence,PBM E-score of 8-mer
1,AACAGAGA,0.00356 ± 0.031
2,CTATGTTC,-0.0945 ± 0.086
3,AATAGTAT,-0.0104 ± 0.068
4,CAATGAAG,0.0998 ± 0.005
5,CCATCAAC,0.0151 ± 0.022
6,GCCAGCGA,0.164 ± 0.098
7,AGACCACT,-0.194 ± 0.038
8,AATAAGTC,-0.0923 ± 0.051
9,AACGGTTA,0.03 ± 0.081
10,AACTTATT,-0.206 ± 0.059
11,ACACTAGC,0.193 ± 0.0066
12,AACTGTAG,0.00842 ± 0.0095
13,AAGTATCC,-0.152 ± 0.008
14,CGGACACG,0.228 ± 0.0096
15,AAATACAA,-0.265 ± 0.013
16,CGGGGGTC,-0.137 ± 0.0072
17,CACTTCGC,0.352 ± 0.018
18,GCCTGTAC,-0.167 ± 0.0039
19,CCGGCTCG,-0.242 ± 0.054
20,CGACGAGA,0.0744 ± 0.0061
21,GGGAACCC,-0.0851 ± 0.0094
22,CATGAAAA,-0.243 ± 0.038
23,TACATCAA,-0.207 ± 0.033
24,AGATTTGG,-0.00302 ± 0.019
25,CCGACTCG,-0.112 ± 0.0083

row,Sequence,PBM E-score of 8-mer
1,CACAACCA,0.133 ± 0.025
2,GAGTGGGC,-0.0471 ± 0.04
3,AATTCTGC,-0.0452 ± 0.0092
4,AAGCGGCG,0.062 ± 0.05
5,CGTCATGA,-0.151 ± 0.033
6,ATACCGAG,-0.197 ± 0.0024
7,CTCATTTC,-0.299 ± 0.014
8,CGTGAACA,0.3774 ± 0.003
9,AATTAGGC,-0.033 ± 0.032
10,ATATGTGC,0.1856 ± 0.001
11,ATTTGCCC,-0.177 ± 0.017
12,ACTGGTAC,-0.0857 ± 0.01
13,ACGAGGTC,-0.114 ± 0.018
14,ACCCGAAA,0.152 ± 0.015
15,GGGTATTA,-0.038 ± 0.048
16,CATAGAGG,-0.0393 ± 0.019
17,GCGGGTAA,0.146 ± 0.0046
18,AGCATTAT,0.00754 ± 0.061
19,GGCCGTAC,-0.249 ± 0.0084
20,CAGTCATC,-0.0362 ± 0.012
21,CCACCTGC,0.269 ± 0.0095
22,CCTTTCTC,0.0185 ± 0.0011
23,CGTACCGA,-0.156 ± 0.052
24,ACAAACAA,-0.066 ± 0.0099
25,CTGCATCC,-0.245 ± 0.0093

row,Sequence,PBM E-score of 8-mer
1,ATATATTC,-0.271 ± 0.025
2,CCTAATTA,-0.0287 ± 0.015
3,CCCCCATC,-0.0563 ± 0.053
4,GTCCTTAA,-0.269 ± 0.0087
5,AATCCGGC,-0.0346 ± 0.0085
6,TAGGTCAA,-0.2271 ± 0.0022
7,CGTAATAG,-0.105 ± 0.022
8,ATAGTCTA,-0.144 ± 0.052
9,TCCGTCCA,-0.0554 ± 0.01
10,GATCGAAC,-0.035 ± 0.014
11,CAAGTTTA,0.0965 ± 0.048
12,GCGGTTAC,-0.06 ± 0.068
13,CCCAGTGC,-0.0903 ± 0.0083
14,GTTTTGCA,-0.0412 ± 0.044
15,GAGCTTCA,-0.236 ± 0.036
16,AGTTTCTG,-0.0851 ± 0.074
17,AGCTCTCA,0.115 ± 0.032
18,CGAACGAA,-0.111 ± 0.06
19,GTTTAGTA,-0.333 ± 0.012
20,AAGCTCTG,-0.183 ± 0.027
21,CTAAGCAA,0.038 ± 0.0066
22,ACGAATTG,0.0276 ± 0.0015
23,GCTGAGGA,0.0171 ± 0.038
24,ACGGTTAG,-0.0126 ± 0.093
25,TAACAGCA,0.0439 ± 0.019

row,Sequence,PBM E-score of 8-mer
1,AGGAATGC,-0.142 ± 0.024
2,AATCCGAG,-0.0447 ± 0.06
3,AACAGCAC,0.202 ± 0.046
4,GGCCTTGA,-0.26 ± 0.019
5,TCTTTCAA,-0.252 ± 0.024
6,CTTTGACC,-0.13 ± 0.05
7,ACGTACCA,-0.143 ± 0.039
8,AATCTCTC,-0.1 ± 0.11
9,GCATCGGA,-0.138 ± 0.017
10,CGGATTCA,-0.0393 ± 0.016
11,GTAGTGGA,-0.102 ± 0.053
12,ACCACTCG,0.101 ± 0.024
13,CCCTCCTC,-0.0298 ± 0.012
14,AGTCTTTG,-0.0972 ± 0.0089
15,ATAGCAGC,0.0931 ± 0.011
16,AAATAAGT,-0.0288 ± 0.062
17,ACCCTAGC,-0.0995 ± 0.029
18,ATACATAC,-0.103 ± 0.013
19,AACTACAT,-0.0413 ± 0.043
20,ACTTCTAT,-0.0218 ± 0.0071
21,CCTCCAGG,-0.242 ± 0.0033
22,ATGCACGA,-0.0775 ± 0.11
23,CACAAACC,-0.19 ± 0.028
24,CTCAGGAC,-0.222 ± 0.031
25,ACATTCCT,-0.222 ± 0.0064

row,Sequence,PBM E-score of 8-mer
1,CATCTCTA,-0.0506 ± 0.074
2,AAGAACCG,-0.0168 ± 0.063
3,GACCGCAA,-0.142 ± 0.035
4,GCGGTTCA,0.1741 ± 0.0011
5,GCAACCTA,0.158 ± 0.058
6,CCCCCAAG,0.0998 ± 0.036
7,AGCCGAAC,-0.0757 ± 0.063
8,CCAGCACG,0.205 ± 0.032
9,GCCAAAAA,-0.0953 ± 0.034
10,ATAAACAC,0.293 ± 0.034
11,CGCCGATC,-0.0602 ± 0.07
12,TGGGACAA,-0.109 ± 0.004
13,ACGAACAG,0.0154 ± 0.16
14,ACGATCTG,0.144 ± 0.042
15,AGCAGGGC,-0.297 ± 0.019
16,GCACCGCC,0.0994 ± 0.15
17,GCATGAAA,-0.0438 ± 0.023
18,CGCCCTGA,-0.0239 ± 0.0077
19,CTGGTATC,-0.2 ± 0.12
20,AAGACATT,-0.167 ± 0.06
21,GATCGGTA,-0.135 ± 0.031
22,ACATGGAG,-0.122 ± 0.03
23,GAGCTCCA,-0.209 ± 0.034
24,ATAATTAA,-0.0627 ± 0.08
25,AGCATCAC,0.197 ± 0.0061

row,Sequence,PBM E-score of 8-mer
1,ACAAGTGT,0.381 ± 0.019
2,ACTACCTG,0.0617 ± 0.013
3,GAGTGGCA,0.199 ± 0.044
4,AGTCTCAA,0.00675 ± 0.073
5,GTACACAC,0.237 ± 0.018
6,CAGCCACG,0.196 ± 0.035
7,ACAAGGCA,-0.091 ± 0.044
8,GTGGCGGA,0.163 ± 0.049
9,CCTTGGAA,-0.137 ± 0.011
10,AGGATACA,-0.0566 ± 0.059
11,AAACTCTT,-0.161 ± 0.018
12,GACAAGGA,-0.0645 ± 0.017
13,CTAGTGCC,0.0231 ± 0.067
14,AGAAATCC,-0.13 ± 0.034
15,AGGGATTA,-0.0888 ± 0.03
16,AATCCGTC,-0.0788 ± 0.035
17,CGAAGAAG,0.0515 ± 0.035
18,ACCCAAGC,-0.238 ± 0.036
19,GAACGGGA,-0.101 ± 0.059
20,CCTGAGCA,-0.0674 ± 0.018
21,ACTACCAC,-0.0193 ± 0.054
22,ATTGAGAA,0.00754 ± 0.1
